From the supplement of paper PMC10126150
Sequences with one replicate were seen in a single cluster, so their values are uncertain.
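Note: ATP exposure 15 min at 22 °C before imaging.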

Each sequence was assayed on ATP (assay: switch fluorescence ratio, 500 uM ATP over buffer (Cy3 cluster intensity, sum of 5 cycles each) (fold (ratio)); higher = stronger signal-on switching upon ATP binding; sequences stand for … in TCGTCGGCAGCGTCAGATGTGTATAAGAGACAGTTTTTTTTTTTTTTTTTTTTTTTTT…TC). Details: aptamer strand: ATP DNA aptamer (quencher-CACCTGGGGGAGTATTGCGGAGGAAGG + anchor), 100 nM annealed; ATP concentration: 500 uM; one replicate.
Outline: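 Between each of five buffer/ATP cycles, the flow-cell was stripped with NaOH and re-annealed. Each cycle imaged Cy3-labelled switching-strand clusters, annealed to 100 nM quencher-labelled ATP aptamer on a modified Illumina MiSeq flow-cell, first in selection buffer and then after 15 min with 500 uM ATP at 22 °C. The fluorescence ratio is summed target-cycle over summed buffer-cycle Cy3 intensity per cluster, averaged per switch-domain sequence, with clusters outside 100-1000 RFU excluded.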
TACGTGGACG was tested, and the switch fluorescence ratio was 1.03. TACGTGTAGG was tested, and the switch fluorescence ratio was 1.04. Sequence TACGTGTGCG has a switch fluorescence ratio of 0.978. Work on TACGTGTTC yielded a switch fluorescence ratio of 0.981. For TACGTGTTGT, the switch fluorescence ratio was 0.978. In the case of TACGTTTATC, the switch fluorescence ratio was 1. TACTAAAGTC showed a switch fluorescence ratio of 1.03. For TACTAAATCA, the switch fluorescence ratio was 1.04. Work on TACTAAATGT yielded a switch fluorescence ratio of 1.02. TACTAACTTT gave a switch fluorescence ratio of 1.13. In the case of TACTAATGAA, the switch fluorescence ratio was 1.12. TACTAATTCT showed a switch fluorescence ratio of 1.04. TACTAGTACT gave a switch fluorescence ratio of 1.11. TACTAGTTTG gave a switch fluorescence ratio of 1.01. With TACTATCGAT the switch fluorescence ratio was 0.995. Work on TACTATGGTG yielded a switch fluorescence ratio of 0.981. Sequence TACTCCTCG has a switch fluorescence ratio of 1.1. With TACTCGGAGT the switch fluorescence ratio was 1.04. With TACTCGTTCG the switch fluorescence ratio was 1.09. TACTCTGGGG was tested, and the switch fluorescence ratio was 1.04. With TACTGACAAT the switch fluorescence ratio was 1.14. In the case of TACTGGGAGT, the switch fluorescence ratio was 1.03. TACTGGTAAC gave a switch fluorescence ratio of 1.04. For TACTGGTTGT, the switch fluorescence ratio was 1.04. In the case of TACTTAATT, the switch fluorescence ratio was 1.05. TACTTACCCG gave a switch fluorescence ratio of 1.27. Work on TACTTACCTT yielded a switch fluorescence ratio of 1.18. For TACTTACGG, the switch fluorescence ratio was 1.52. With TACTTAGCAA the switch fluorescence ratio was 2.62. TACTTATGTC showed a switch fluorescence ratio of 0.992. With TACTTCCAAT the switch fluorescence ratio was 1.42. With TACTTCTGCT the switch fluorescence ratio was 1.03. TACTTTGAAG gave a switch fluorescence ratio of 1.04. TACTTTTCGG was tested, and the switch fluorescence ratio was 0.99. With TAGAAAGAGA the switch fluorescence ratio was 0.95. TAGAAAGCG showed a switch fluorescence ratio of 1.02. With TAGAAAGCGC the switch fluorescence ratio was 1.1. In the case of TAGAAATGCT, the switch fluorescence ratio was 1.03. For TAGAAGAAG, the switch fluorescence ratio was 0.979. For TAGAAGAATA, the switch fluorescence ratio was 1.03. Sequence TAGACAGCAT has a switch fluorescence ratio of 1.01. TAGACATTCC was tested, and the switch fluorescence ratio was 1.68. For TAGACCAGTC, the switch fluorescence ratio was 1.04. Work on TAGACCCCTG yielded a switch fluorescence ratio of 1.01. Work on TAGACCGCAC yielded a switch fluorescence ratio of 2.37. With TAGACCTGTG the switch fluorescence ratio was 0.951. For TAGACTACCA, the switch fluorescence ratio was 1.02. Sequence TAGAGAGTAA has a switch fluorescence ratio of 1.02. Sequence TAGAGATTAA has a switch fluorescence ratio of 0.985. TAGAGCGGCG gave a switch fluorescence ratio of 0.929. TAGAGGAACG showed a switch fluorescence ratio of 1.02. TAGAGGGGT gave a switch fluorescence ratio of 0.966. TAGAGGTCGC was tested, and the switch fluorescence ratio was 1.03. In the case of TAGAGGTCTC, the switch fluorescence ratio was 1.03. In the case of TAGAGGTGTT, the switch fluorescence ratio was 1.02. TAGAGTGTTG was tested, and the switch fluorescence ratio was 0.967. TAGATAACG showed a switch fluorescence ratio of 0.99. With TAGATAGGAG the switch fluorescence ratio was 1.01. For TAGATCACTG, the switch fluorescence ratio was 1.01. With TAGATCATGG the switch fluorescence ratio was 1.06. In the case of TAGATCCCGG, the switch fluorescence ratio was 0.965. TAGATTCTTC showed a switch fluorescence ratio of 1.04. With TAGCAAACAG the switch fluorescence ratio was 1.07. Sequence TAGCAGATCT has a switch fluorescence ratio of 1. TAGCAGTCTT showed a switch fluorescence ratio of 1.01. With TAGCATCAT the switch fluorescence ratio was 0.949. Work on TAGCCGAGTC yielded a switch fluorescence ratio of 1.03. For TAGCCGGCAC, the switch fluorescence ratio was 0.993. TAGCCGTCGT was tested, and the switch fluorescence ratio was 1.05. TAGCCTGGTA was tested, and the switch fluorescence ratio was 1.02. With TAGCGAGCGG the switch fluorescence ratio was 1.03. Work on TAGCGAGCT yielded a switch fluorescence ratio of 1.01. In the case of TAGCGATAT, the switch fluorescence ratio was 1.65. Sequence TAGCGCACTC has a switch fluorescence ratio of 1.47. TAGCGCATTC gave a switch fluorescence ratio of 2.42. Sequence TAGCGGCTAA has a switch fluorescence ratio of 1. Work on TAGCGTCGCT yielded a switch fluorescence ratio of 0.951. TAGCGTGCTC was tested, and the switch fluorescence ratio was 1.02. Work on TAGCGTTATT yielded a switch fluorescence ratio of 1.04. Sequence TAGCTAGCTG has a switch fluorescence ratio of 0.974. In the case of TAGCTGGTCG, the switch fluorescence ratio was 1. With TAGCTTATTC the switch fluorescence ratio was 1.1. In the case of TAGCTTCGCC, the switch fluorescence ratio was 1.07. For TAGCTTGCCG, the switch fluorescence ratio was 1.04. With TAGGAAAGCT the switch fluorescence ratio was 1. Sequence TAGGAAAGGT has a switch fluorescence ratio of 0.969. TAGGAACCTG showed a switch fluorescence ratio of 1.08. TAGGAAGTTA gave a switch fluorescence ratio of 1.03. In the case of TAGGAAGTTG, the switch fluorescence ratio was 1.01. For TAGGACGAG, the switch fluorescence ratio was 0.985. Work on TAGGACTGGA yielded a switch fluorescence ratio of 1.04. Sequence TAGGAGGAT has a switch fluorescence ratio of 0.991. For TAGGAGGGTA, the switch fluorescence ratio was 1.02. Work on TAGGATGATA yielded a switch fluorescence ratio of 1.01. TAGGATTAAG gave a switch fluorescence ratio of 0.961. With TAGGATTGAC the switch fluorescence ratio was 0.989. TAGGCAATCG showed a switch fluorescence ratio of 1.09. TAGGCAATTC gave a switch fluorescence ratio of 2.68. Sequence TAGGCACACT has a switch fluorescence ratio of 1.08. TAGGCATGG gave a switch fluorescence ratio of 0.981.
